In PubChem BioAssay AID686970 (National Center for Advancing Translational Sciences (NCATS), 2013):
Screen size: about 360,000 compounds; about 6,000 (1.7%) were called active. The inconclusive results got no clear call from the source; some entries with a clear call stand among them for comparison. Calls follow the shape of the dose curve; as a rule, active = well fitted cell-killing curve with a large enough effect; inconclusive = small, poorly fitted or top-dose-only effect, or effect the other way; inactive = flat fitted curve, though single readings scatter. Potencies of inconclusive entries are left out as doubtful fits.

Experiment: qHTS for induction of synthetic lethality in tumor cells producing 2HG: qHTS for the HT-1080-NT fibrosarcoma cell line;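 also: NT is the 2HG producing partner of a matched IDH1 knockdown line; nearly all actives have a fitted effect of over 55% in size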;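 as to activity, negative = less viability: 0% = DMSO-treated cells and -100% = media-only wells without cells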
Settings: HT-1080-NT fibrosarcoma viability, CellTiter-Glo ATP luminescence, 48 h; activity, negative = less viability: at 46.1 µM (top of the series) unless noted
How it was run: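 Fibrosarcoma NT cells, 750 per well in 5% FBS RPMI, were exposed to compound for 48 hours. Viability: CellTiter-Glo luminescence.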
Potency is read from the fitted curve at half-maximal effect; tags tell the direction and shape of the fitted curve.

Row | Structure (SMILES) | Potency | activity, negative = less viability
1 | O=S1(=O)CC(N2CCN(CC3CC3)CC2)CN1C1CCCCC1 (stereo not drawn) | inconclusive [rising, full curve] | –
2 | COC(=O)c1sc2ccccc2c1-n1cccc1C(=O)C(=O)Nc1ccc(Cl)cc1 | – | inactive: -1.93%
3 | Cc1cc(=O)n(Cc2ccc(OC(C)C)cc2)c(=S)[nH]1 | inconclusive [cytotoxic, single point] | –
4 | Cc1ccc(C(=O)N(CC(=O)NC2CCCC2)c2ccccc2Cl)s1 | – | inactive: 0.177%
5 | CCOC(=O)c1[nH]c(C)c(C(=O)Nc2cccc(Cl)c2C)c1C | active: 11.2 µM | –
6 | Cc1onc(-c2ccccc2)c1-c1n[nH]c(=S)n1-c1ccccc1Cl | inconclusive [cytotoxic, partial curve] | –
7 | CC(=O)Nc1ccc(OCC(O)CN2CCN(c3cc(Cl)ccc3C)CC2)cc1 (stereo not drawn) | inconclusive [cytotoxic, single point] | –
8 | O=c1[nH]c2cc([N+](=O)[O-])ccc2c2cc(Br)ccc12 | – | inactive: -14.1%
9 | CSC1=NC(C(Cl)(Cl)Cl)N=C(c2ccc(C)cc2)N1 (stereo not drawn) | active: 0.366 µM | –
10 | COc1ccc(CCNC(=O)c2cc(-c3ccc(C)c(C)c3O)n[nH]2)cc1OC | – | inactive: -26.6%
11 | Cc1cc(C)n(-c2cc(C(C)(C)C)nc3c(-c4ccccc4)cnn23)n1 | inconclusive [cytotoxic, single point] | –
12 | CN(C)c1cccc(C(=O)Nc2ccc(N3CCOCC3)cc2)c1 | inconclusive [cytotoxic, single point] | –
13 | Cn1nnc(NC(=O)CSc2ccc(Cl)cc2)n1 | inconclusive [rising, full curve] | –
14 | COc1cccc(-c2ccc(CN3C(C(C)C)C(=O)N(Cc4cn(CCC5OCCO5)nn4)CCS3(=O)=O)cc2)c1OC (stereo not drawn) | – | inactive: -20.4%
15 | C=CCOC(=O)C1=C(C)NC(SC)=C(C#N)C1c1ccc(OCC)cc1 (stereo not drawn) | inconclusive [cytotoxic, single point] | –
16 | S=C(NCc1ccccc1)NCc1ccccc1 | inconclusive [cytotoxic, single point] | –
17 | CCCOc1ccc(NC(=O)CC2C(=O)N(CC)C(=S)N2Cc2cccs2)cc1 (stereo not drawn) | inconclusive [cytotoxic, single point] | –
18 | CCOC(=O)N1CCN(CC(O)COCc2cc(OC)c(OC)c(OC)c2)CC1 (stereo not drawn) | – | inactive: 17.3%
19 | CN1CCN(C(c2ccc(Cl)cc2)c2cc(Cl)c3cccnc3c2O)CC1 (stereo not drawn) | inconclusive [cytotoxic, partial curve, poor fit] | –
20 | O=[N+]([O-])c1c(NCCCO)cc(Sc2ccc(Cl)cc2)c2nonc12 | – | inactive: 2.05%
21 | CCCNC(=O)c1nnsc1S(=O)(=O)c1ccc(Cl)cc1 | active: 13 µM | –
22 | O=C(c1ccco1)N1CCc2[nH]nc(-c3ccc(Cl)cc3)c2C1 | – | inactive: -11.3%
23 | Cc1cccc(CN(C(=S)Nc2c(C)cccc2C)c2cccnc2)c1 | – | inactive: 10.5%
24 | Cc1ccc(S(=O)(=O)N2CCOCC2)cc1C(=O)NCCc1ccc(Cl)cc1 | – | inconclusive: -2.99% [cytotoxic]
25 | COc1ccc(-c2cc(C(F)F)n3ncc(C(=O)N4CCc5ccccc5C4)c3n2)cc1 | inconclusive [cytotoxic, single point] | –

Row | Structure (SMILES) | Potency | activity, negative = less viability
26 | CC(NCC(O)c1ccc([N+](=O)[O-])cc1)C12CC3CC(CC(C3)C1)C2 (stereo not drawn) | active: 18.4 µM | –
27 | CCOC(=O)[C@]12CCC=C1N(Cc1ccc3c(c1)OCO3)C(=O)[C@H](CC(=O)NCC13CC4CC(CC(C4)C1)C3)C2 | inconclusive [cytotoxic, single point] | –
28 | COc1cc([C@H]2c3[nH]c4ccccc4c3C[C@H]3C(=O)N4[C@@H](c5cc(OC)c(OC)c(OC)c5)c5[nH]c6ccccc6c5C[C@H]4C(=O)N23)cc(OC)c1OC | active: 11.6 µM | –
29 | CC1CCN(c2ccccc2NC(=O)c2ccc(C#N)cc2F)CC1 | inconclusive [rising, single point] | –
30 | O=C(c1cc2ccccc2cc1O)N1CCCC(C(F)(F)F)C1 (stereo not drawn) | – | inactive: -6.29%
31 | O=C(c1ccc2c(=O)n3c(nc2c1)CCCCC3)N1CCN(C(c2ccccc2)c2ccccc2)CC1 | active: 17.8 µM | –
32 | NC(=S)NN=C1c2cc(OCCN3CCOCC3)ccc2-c2ccc(OCCN3CCOCC3)cc21 | inconclusive [cytotoxic, single point] | –
33 | Clc1cccc(Cl)c1COn1nnc2ccccc21 | inconclusive [cytotoxic, single point] | –
34 | COc1ccc(NC(=S)N(Cc2ccc(N(C)C)cc2)Cc2ccco2)cc1 | – | inactive: -14.1%
35 | Cc1cccc(N2C(=O)CSC23CCCCC3)c1 | – | inactive: 2.12%
36 | O=C(NCC1CCCCC1)c1cc2ccccc2cc1O | inconclusive [cytotoxic, single point] | –
37 | O=[N+]([O-])c1ccccc1N=Nc1ccc(O)cc1O | – | inactive: -9.05%
38 | CC(=O)/C(=N/Nc1ccccc1)N1CCOCC1 | active: 5.01 µM | –
39 | C=CCc1ccc(O)c(-c2cc(CC=C)ccc2O)c1 | – | inactive: 6.98%
40 | O=C(Nc1cc(S(=O)(=O)Nc2ccc(Cl)cc2)ccc1N1CCCCC1)c1ccc(F)cc1Cl | inconclusive [cytotoxic, single point] | –
41 | Cc1cc(C)c(NC(=O)CN(C)S(=O)(=O)c2ccc3c(c2)n(C)c(=O)c(=O)n3C)c(C)c1 | – | inactive: 5.81%
42 | COc1c(Cl)cc(Cl)cc1C(=O)Nc1ccc(NC(=O)c2cccs2)cc1 | inconclusive [cytotoxic, single point] | –
43 | N=c1c2c(-c3ccccc3)c(-c3ccccc3)oc2ncn1Cc1ccco1 | active: 23.1 µM | –
44 | Cc1ccc(NC(=O)CCl)c(C)c1 | inconclusive [cytotoxic, single point] | –
45 | Cn1c(Oc2cccnc2CN2CCCC2)nc2cc(-c3cccc(C(F)(F)F)c3)sc2c1=O | inconclusive [cytotoxic, single point] | –
46 | Cc1cccc([C@H]2[C@@H]3C=CC[C@@H](C)[C@@H]3C(=O)N2Cc2ccccc2)c1 | inconclusive [cytotoxic, single point] | –
47 | CCOC(=O)C1=CCC(c2cccc(C)c2)N(S(=O)(=O)c2ccc(C)cc2)C1 (stereo not drawn) | inconclusive [cytotoxic, single point] | –
48 | CCCOc1ccc(C(=O)NNC(=S)NC(=O)CC)cc1 | inconclusive [cytotoxic, full curve] | –
49 | COc1ccc(S(=O)(=O)N2CCCCCC2)cc1C(=O)N(C)Cc1ccc(Cl)cc1Cl | inconclusive [cytotoxic, single point] | –
50 | COc1cc(OC)cc(C(=O)N2CCN(Cc3ccc4c(c3)OCO4)CC2)c1 | – | inactive: -1.28%

Row | Structure (SMILES) | Potency | activity, negative = less viability
51 | CCCCCNCC(=O)Nc1cccc(C(=O)Nc2cccc(C(F)(F)F)c2)c1 | active: 20.6 µM | –
52 | COc1ccc(C2c3ccc4ccccc4c3Oc3ncn(CCN(C)C)c(=N)c32)cc1 (stereo not drawn) | inconclusive [cytotoxic, single point] | –
53 | c1ccc(CCNc2ccnc3cc4ccccc4cc23)cc1 | active: 18.4 µM | –
54 | COC(=O)c1ccc2cc(OC)cc([N+](=O)[O-])c2n1 | – | inactive: 2.15%
55 | COc1ccc(CC(=O)NNC(=S)NC(=O)c2cc(OC)c(OC)c(OC)c2)cc1 | inconclusive [cytotoxic, single point] | –
56 | Cc1c(C(=O)N/N=C/c2c(O)ccc3ccccc23)nnn1-c1nonc1N | – | inconclusive: -25.5% [cytotoxic]
57 | O=C(c1ccc(NS(=O)(=O)c2ccc3c(c2)OCCO3)cc1)N1CCCCC1 | inconclusive [cytotoxic, single point] | –
58 | CN(CC(O)COc1ccc2ccccc2c1)C1CCCCC1 (stereo not drawn) | inconclusive [cytotoxic, partial curve] | –
59 | O=C(NNC(=O)c1ccccc1O)c1ccc(Cl)cc1 | inconclusive [cytotoxic, single point] | –
60 | O=C(c1cc(COc2cccc3cnccc23)on1)N1CCC(c2ccccc2Cl)C1 (stereo not drawn) | inconclusive [cytotoxic, single point] | –
61 | CCn1c(CNC(=O)c2ccccc2F)cc2cc(C)ccc21 | – | inactive: 7.27%
62 | CC(Cc1n[nH]c(=S)n1N)c1ccccc1 (stereo not drawn) | – | inactive: -0.495%
63 | N#CC1=C(N)SC(N)=C(C#N)C1CCc1ccccc1 | inconclusive [cytotoxic, single point] | –
64 | Clc1ccc(-c2ccc(/C=N/Nc3cc(N4CCOCC4)nc(N4CCOCC4)n3)o2)cc1 | inconclusive [cytotoxic, single point] | –
65 | CSc1nc2ccccc2cc1/C=C(\C#N)c1ccccc1 | inconclusive [cytotoxic, partial curve] | –
66 | Cc1cc2cc(CN(Cc3ccco3)S(=O)(=O)c3c(C)ccc4nsnc34)c(=O)[nH]c2cc1C | inconclusive [cytotoxic, single point] | –
67 | O=C(Nc1ncc(Cc2ccc(SC(F)F)cc2)s1)c1ccc(OC(F)F)cc1 | active: 0.0731 µM | –
68 | O=C1CN(C(=O)COc2ncnc3ccccc23)c2ccccc2N1 | – | inconclusive: 30.4%
69 | O=C(NCc1ccccc1)c1ccc(-c2ccc(F)c(F)c2)c2ccoc12 | inconclusive [cytotoxic, single point] | –
70 | COc1cc(NC(=O)COc2ccc(Cl)cc2)ccc1NC(=O)C(C)C | – | inactive: -1.73%
71 | COc1cc(CNC(C)c2ccccc2)cc(Cl)c1OCC(=O)Nc1ccccc1 (stereo not drawn) | inconclusive [cytotoxic, partial curve] | –
72 | CCOC(=O)CNC(=O)CCc1nnc2ccc(N3CCC(C)CC3)nn12 | – | inactive: -1.58%
73 | O=C(/C(=C/O)N=Nc1ccccc1Cl)c1ccccc1 | active: 13 µM | –
